Laboratory results: the supplement of paper PMC8728848
Some of the results follow.

How the values were obtained:
Test in all cases: glycan array binding signal (z-score within array); higher = stronger binding
Conditions in all cases: glycan notation: IUPAC condensed, linker removed
[1] = target: Gal(a1-3)[Gal(a1-4)]Gal(b1-4)GlcNAc
Method in brief: (§1)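 The binding signal is a Z-score computed within each array. Data were drawn from 3228 arrays in the Consortium for Functional Glycomics database, restricted to those with a known protein sequence. Scores were averaged over arrays of the same protein sequence at different concentrations or buffers, and over linkers, and negative values can be taken as non-binding.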

[2] = target: Gal(a1-4)Gal(b1-3)GlcNAc(b1-2)Man(a1-3)[Gal(a1-4)Gal(b1-3)GlcNAc(b1-2)Man(a1-6)]Man(b1-4)GlcNAc(b1-4)GlcNAc
Method in brief: as §1

Gal(a1-4)Gal(b1-4)Glc = target: Gal(a1-4)Gal(b1-4)Glc
Method in brief: as §1

Gal(a1-4)Gal(b1-4)GlcNAc = target: Gal(a1-4)Gal(b1-4)GlcNAc
Method in brief: as §1

[3] = target: Gal(a1-4)Gal(b1-4)GlcNAc(b1-2)Man(a1-3)[Gal(a1-4)Gal(b1-4)GlcNAc(b1-2)Man(a1-6)]Man(b1-4)GlcNAc(b1-4)GlcNAc
Method in brief: as §1

[4] = target: Gal(a1-4)Gal(b1-4)GlcNAc(b1-3)Gal(b1-4)Glc
Method in brief: as §1

Gal(a1-4)GlcNAc = target: Gal(a1-4)GlcNAc
Method in brief: as §1

Gal(a1-6)Glc = target: Gal(a1-6)Glc
Method in brief: as §1

Gal(b1-2)Gal = target: Gal(b1-2)Gal
Method in brief: as §1

Gal(b1-3)Gal = target: Gal(b1-3)Gal
Method in brief: as §1

Gal(b1-3)Gal(b1-4)GlcNAc = target: Gal(b1-3)Gal(b1-4)GlcNAc
Method in brief: as §1

Gal(b1-3)GalNAc = target: Gal(b1-3)GalNAc
Method in brief: as §1

[5] = target: Gal(b1-3)GalNAc(a1-3)[Fuc(a1-2)]Gal(b1-4)Glc
Method in brief: as §1

[6] = target: Gal(b1-3)GalNAc(a1-3)[Fuc(a1-2)]Gal(b1-4)GlcNAc
Method in brief: as §1

Gal(b1-3)GalNAc(b1-3)Gal = target: Gal(b1-3)GalNAc(b1-3)Gal
Method in brief: as §1

[7] = target: Gal(b1-3)GalNAc(b1-3)Gal(a1-4)Gal(b1-4)Glc
Method in brief: as §1

[8] = target: Gal(b1-3)GalNAc(b1-4)Gal(b1-4)Glc
Method in brief: as §1

[9] = target: Gal(b1-3)GalNAc(b1-4)[Neu5Ac(a2-3)]Gal(b1-4)Glc
Method in brief: as §1

Gal(b1-3)GlcNAc = target: Gal(b1-3)GlcNAc
Method in brief: as §1

[10] = target: Gal(b1-3)GlcNAc(a1-3)Gal(b1-4)GlcNAc
Method in brief: as §1

[11] = target: Gal(b1-3)GlcNAc(a1-6)Gal(b1-4)GlcNAc
Method in brief: as §1

Gal(b1-3)GlcNAc(b1-2)Man = target: Gal(b1-3)GlcNAc(b1-2)Man
Method in brief: as §1

[12] = target: Gal(b1-3)GlcNAc(b1-2)Man(a1-3)[Gal(b1-3)GlcNAc(b1-2)Man(a1-6)]Man(b1-4)GlcNAc(b1-4)GlcNAc
Method in brief: as §1

[13] = target: Gal(b1-3)GlcNAc(b1-2)Man(a1-3)[Gal(b1-3)GlcNAc(b1-2)Man(a1-6)]Man(b1-4)GlcNAc(b1-4)[Fuc(a1-6)]GlcNAc
Method in brief: as §1

[14] = target: Gal(b1-3)GlcNAc(b1-2)Man(a1-3)[GlcNAc(b1-4)][Gal(b1-3)GlcNAc(b1-2)Man(a1-6)]Man(b1-4)GlcNAc(b1-4)GlcNAc
Method in brief: as §1

[15] = target: Gal(b1-3)GlcNAc(b1-2)[Gal(b1-3)GlcNAc(b1-6)]Man(a1-6)[Gal(b1-3)GlcNAc(b1-2)Man(a1-3)]Man(b1-4)GlcNAc(b1-4)GlcNAc
Method in brief: as §1

[16] = target: Gal(b1-3)GlcNAc(b1-3)Gal(b1-3)GlcNAc
Method in brief: as §1

[17] = target: Gal(b1-3)GlcNAc(b1-3)Gal(b1-4)Glc
Method in brief: as §1

[18] = target: Gal(b1-3)GlcNAc(b1-3)Gal(b1-4)GlcNAc
Method in brief: as §1

[19] = target: Gal(b1-3)GlcNAc(b1-3)Gal(b1-4)GlcNAc(b1-2)Man(a1-3)[Gal(b1-3)GlcNAc(b1-3)Gal(b1-4)GlcNAc(b1-2)Man(a1-6)]Man(b1-4)GlcNAc(b1-4)GlcNAc
Method in brief: as §1

[20] = target: Gal(b1-3)GlcNAc(b1-3)Gal(b1-4)GlcNAc(b1-2)[Gal(b1-3)GlcNAc(b1-3)Gal(b1-4)GlcNAc(b1-6)]Man(a1-6)[Gal(b1-3)GlcNAc(b1-3)Gal(b1-4)GlcNAc(b1-2)Man(a1-3)]Man(b1-4)GlcNAc(b1-4)[Fuc(a1-6)]GlcNAc
Method in brief: as §1

[21] = target: Gal(b1-3)GlcNAc(b1-3)Gal(b1-4)GlcNAc(b1-3)Gal(b1-4)GlcNAc(b1-2)[Gal(b1-3)GlcNAc(b1-3)Gal(b1-4)GlcNAc(b1-3)Gal(b1-4)GlcNAc(b1-6)]Man(a1-6)[Gal(b1-3)GlcNAc(b1-3)Gal(b1-4)GlcNAc(b1-3)Gal(b1-4)GlcNAc(b1-2)Man(a1-3)]Man(b1-4)GlcNAc(b1-4)[Fuc(a1-6)]GlcNAc
Method in brief: as §1

[22] = target: Gal(b1-3)GlcNAc(b1-3)Gal(b1-4)GlcNAc(b1-6)[Gal(b1-3)GlcNAc(b1-3)]Gal(b1-4)Glc
Method in brief: as §1

[23] = target: Gal(b1-3)GlcNAc(b1-3)Gal(b1-4)[Fuc(a1-3)]GlcNAc
Method in brief: as §1

[24] = target: Gal(b1-3)GlcNAc(b1-3)Gal(b1-4)[Fuc(a1-3)]GlcNAc(b1-6)[Gal(b1-3)GlcNAc(b1-3)]Gal(b1-4)Glc
Method in brief: as §1

[25] = target: Gal(b1-3)GlcNAc(b1-3)GalNAc
Method in brief: as §1

[26] = target: Gal(b1-3)GlcNAc(b1-6)Gal(b1-4)GlcNAc
Method in brief: as §1

[27] = target: Gal(b1-3)GlcNAc(b1-6)GalNAc
Method in brief: as §1

B1: Cohesin-marm-DC-ASGPR (protein)
chain: LDITSHHHHHHDDLDAVRIKVDTVNAKPGDTVRIPVRFSGIPSKGIANCDFVYSYDPNVLEIIEIEPGDIIVDPNPDKSFDTAVYPDRKIIVFLFAEDSGTGAYAITKDGVFATIVAKVKEGAPNGLSVIKFVEVGGFANNDLVEQKTQFFDGGVNVGDTTEPATPTTPVTTPTTTDDLDAASSKFQRDLVTLRTDFSNFTSNTLAEIQALTSQGSSLQETIASLKAEVEGHKQELQAGASELQEHNKQKAHLGRCPHTCVCPSSFVCVPVHSEILLRVQQLVQDLNKLSCQVAILKNNATTERTCCPINWVEHQGSCYWFSRSGKTWPEAERYCQLENTHLVVINSREEQNFVQAHLGSAYTWMGLSDPEGVWKWVDGTDYSSGFQNWKPGQPDDWQGHGLGGGEDCAHFHPDGRWNDDVCQRSYHWVCEAGLTQASQDSHAS
Question: Which results are given for B1?
Answer: glycan array binding signal (z-score) [1]: -0.307; glycan array binding signal (z-score) [2]: -0.256; glycan array binding signal (z-score) (Gal(a1-4)Gal(b1-4)Glc): -0.302; glycan array binding signal (z-score) (Gal(a1-4)Gal(b1-4)GlcNAc): -0.301; glycan array binding signal (z-score) [3]: -0.267; glycan array binding signal (z-score) [4]: -0.301; glycan array binding signal (z-score) (Gal(a1-4)GlcNAc): -0.223; glycan array binding signal (z-score) (Gal(a1-6)Glc): -0.166; glycan array binding signal (z-score) (Gal(b1-2)Gal): -0.014; glycan array binding signal (z-score) (Gal(b1-3)Gal): -0.286; glycan array binding signal (z-score) (Gal(b1-3)Gal(b1-4)GlcNAc): -0.3; glycan array binding signal (z-score) (Gal(b1-3)GalNAc): -0.247; glycan array binding signal (z-score) [5]: -0.298; glycan array binding signal (z-score) [6]: -0.296; glycan array binding signal (z-score) (Gal(b1-3)GalNAc(b1-3)Gal): -0.3; glycan array binding signal (z-score) [7]: 0.884; glycan array binding signal (z-score) [8]: -0.301; glycan array binding signal (z-score) [9]: 0.852; glycan array binding signal (z-score) (Gal(b1-3)GlcNAc): -0.281; glycan array binding signal (z-score) [10]: -0.31; glycan array binding signal (z-score) [11]: -0.281; glycan array binding signal (z-score) (Gal(b1-3)GlcNAc(b1-2)Man): -0.212; glycan array binding signal (z-score) [12]: -0.298; glycan array binding signal (z-score) [13]: -0.3; glycan array binding signal (z-score) [14]: -0.218; glycan array binding signal (z-score) [15]: -0.289; glycan array binding signal (z-score) [16]: -0.282; glycan array binding signal (z-score) [17]: -0.303; glycan array binding signal (z-score) [18]: -0.293; glycan array binding signal (z-score) [19]: -0.292; glycan array binding signal (z-score) [20]: -0.165; glycan array binding signal (z-score) [21]: -0.242; glycan array binding signal (z-score) [22]: -0.303; glycan array binding signal (z-score) [23]: -0.303; glycan array binding signal (z-score) [24]: -0.31; glycan array binding signal (z-score) [25]: -0.307; glycan array binding signal (z-score) [26]: -0.28; glycan array binding signal (z-score) [27]: 3.52
